These results are taken from article PMC9911399, “Two distinct binding modes provide the RNA-binding protein RbFox with extraordinary sequence specificity”.

Numbering of substitutions follows the chain as printed; changes in the protein carry UniProt numbers. This is one part of the list.

The chains are these.
T1: RBFOX1 RRM RbFoxmut (Fox-RRM*) (Homo sapiens, UniProt Q9NWB1 109-208, R118D;E147R;N151S;E152T)
T1 sequence: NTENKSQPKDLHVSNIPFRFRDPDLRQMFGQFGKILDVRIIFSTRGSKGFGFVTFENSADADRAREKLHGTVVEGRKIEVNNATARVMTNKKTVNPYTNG

B1: CUUGUAC (DNA:RNA)
RNA: GGGAGACCGGAAUUCAGAUUGUCCCUUGUACUUAAAUCCCGUCGUAGCCACCA
DNA 1: CAATCTGAATTCCGGTCTCCC
DNA 2: TGGTGGCTACGACGGGATT
B2: GGCAUAU (DNA:RNA)
RNA: B1 RNA with C25G, U26G, U27C, G28A, C31U
DNA 1: CAATCTGAATTCCGGTCTCCC
DNA 2: TGGTGGCTACGACGGGATT
B3: CUGUCAC (DNA:RNA)
RNA: B1 RNA with U27G, G28U, U29C
DNA 1: CAATCTGAATTCCGGTCTCCC
DNA 2: TGGTGGCTACGACGGGATT
B4: GGUCAAU (DNA:RNA)
RNA: B1 RNA with C25G, U26G, G28C, U29A, C31U
DNA 1: CAATCTGAATTCCGGTCTCCC
DNA 2: TGGTGGCTACGACGGGATT
B5: UAACCAG (DNA:RNA)
RNA: B1 RNA with C25U, U26A, U27A, G28C, U29C, C31G
DNA 1: CAATCTGAATTCCGGTCTCCC
DNA 2: TGGTGGCTACGACGGGATT
B6: UCAUAAC (DNA:RNA)
RNA: B1 RNA with C25U, U26C, U27A, G28U, U29A
DNA 1: CAATCTGAATTCCGGTCTCCC
DNA 2: TGGTGGCTACGACGGGATT
B7: UGCCCAC (DNA:RNA)
RNA: B1 RNA with C25U, U26G, U27C, G28C, U29C
DNA 1: CAATCTGAATTCCGGTCTCCC
DNA 2: TGGTGGCTACGACGGGATT
B8: CCAUCAG (DNA:RNA)
RNA: B1 RNA with U26C, U27A, G28U, U29C, C31G
DNA 1: CAATCTGAATTCCGGTCTCCC
DNA 2: TGGTGGCTACGACGGGATT
B9: GAGGCAA (DNA:RNA)
RNA: B1 RNA with C25G, U26A, U27G, U29C, C31A
DNA 1: CAATCTGAATTCCGGTCTCCC
DNA 2: TGGTGGCTACGACGGGATT
B10: UUCAGCG (DNA:RNA)
RNA: B1 RNA with C25U, U27C, G28A, U29G, A30C, C31G
DNA 1: CAATCTGAATTCCGGTCTCCC
DNA 2: TGGTGGCTACGACGGGATT
B11: CUGAAUU (DNA:RNA)
RNA: B1 RNA with U27G, G28A, U29A, A30U, C31U
DNA 1: CAATCTGAATTCCGGTCTCCC
DNA 2: TGGTGGCTACGACGGGATT
B12: GCACUAU (DNA:RNA)
RNA: B1 RNA with C25G, U26C, U27A, G28C, C31U
DNA 1: CAATCTGAATTCCGGTCTCCC
DNA 2: TGGTGGCTACGACGGGATT
B13: UUUUGAA (DNA:RNA)
RNA: B1 RNA with C25U, G28U, U29G, C31A
DNA 1: CAATCTGAATTCCGGTCTCCC
DNA 2: TGGTGGCTACGACGGGATT
B14: ACGAAUU (DNA:RNA)
RNA: GGGAGACCGGAAUUCAGAUUGUCCACGAAUUUUAAAUCCCGUCGUAGCCACCA
DNA 1: CAATCTGAATTCCGGTCTCCC
DNA 2: TGGTGGCTACGACGGGATT
B15: ACGCGGG (DNA:RNA)
RNA: B14 RNA with A28C, A29G, U30G, U31G
DNA 1: CAATCTGAATTCCGGTCTCCC
DNA 2: TGGTGGCTACGACGGGATT
B16: CUGUUGC (DNA:RNA)
RNA: B1 RNA with U27G, G28U, A30G
DNA 1: CAATCTGAATTCCGGTCTCCC
DNA 2: TGGTGGCTACGACGGGATT
B17: CUAGGAG (DNA:RNA)
RNA: B1 RNA with U27A, U29G, C31G
DNA 1: CAATCTGAATTCCGGTCTCCC
DNA 2: TGGTGGCTACGACGGGATT
B18: AGCAACG (DNA:RNA)
RNA: B14 RNA with C26G, G27C, U30C, U31G
DNA 1: CAATCTGAATTCCGGTCTCCC
DNA 2: TGGTGGCTACGACGGGATT
B19: GUAAGAA (DNA:RNA)
RNA: B1 RNA with C25G, U27A, G28A, U29G, C31A
DNA 1: CAATCTGAATTCCGGTCTCCC
DNA 2: TGGTGGCTACGACGGGATT
B20: CCGCCAG (DNA:RNA)
RNA: B14 RNA with A25C, A28C, A29C, U30A, U31G
DNA 1: CAATCTGAATTCCGGTCTCCC
DNA 2: TGGTGGCTACGACGGGATT

This test addresses T1, RBFOX1 RRM RbFoxmut (Fox-RRM*). Put plainly: EMSA; HiTS-Eq, 1 nM pool, 10 min; buffer printed only for the single-RNA assays: 10 mM Tris pH 7.5, 150 mM NaCl, 3.4 mM EDTA, 0.001% NP-40, 30 C. The following applies: tags: His6 N-terminal (pET28a); label: 5' 32P. Summed up: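 Purified RbFox RRM (wild type or mutant) was equilibrated for 10 min in 50 µL with 1 nM of a 5′-radiolabelled pool of RNA with 7 randomized nucleotides, its flanks annealed to DNA oligonucleotides, across increasing protein concentrations. Free RNA was separated by 8% native PAGE, excised, reverse-transcribed, PCR-barcoded and sequenced on an Illumina HiSeq 2500. Relative association constants came from read-count changes of each variant against the control reaction, normalised to the cognate motif.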
(A gel shift assay detects complexes by their altered migration in electrophoresis.)
Take B1: the binding signal was 0.134 KA relative to UGCAUGU. In the case of B2, the binding signal was 0.112 KA relative to UGCAUGU. The value for B3 was 0.0886 KA relative to UGCAUGU. B4: the binding signal was 0.066 KA relative to UGCAUGU. Turning to B5, the binding signal is 0.0724 KA relative to UGCAUGU. B6: the binding signal is 0.0826 KA relative to UGCAUGU.

For the molecule B7, the binding signal is 0.0789 KA relative to UGCAUGU. Take B8: the binding signal is 0.113 KA relative to UGCAUGU. The value for B9 was 0.0508 KA relative to UGCAUGU; that for B10 was 0.168 KA relative to UGCAUGU; that for B11 was 0.0535 KA relative to UGCAUGU. As to B12, the binding signal is 0.0921 KA relative to UGCAUGU. Regarding B13, the binding signal is 0.0728 KA relative to UGCAUGU. The value for B14 was 0.134 KA relative to UGCAUGU; that for B15 was 0.109 KA relative to UGCAUGU; that for B16 was 0.132 KA relative to UGCAUGU. In the case of B17, the binding signal is 0.108 KA relative to UGCAUGU. The value for B18 was 0.106 KA relative to UGCAUGU; that for B19 was 0.0745 KA relative to UGCAUGU. For B20, the binding signal was 0.101 KA relative to UGCAUGU.
